Data on three molecules can be found in patent US9433687B2, “Anti-Notch3 antibodies and antibody-drug conjugates” (Pfizer Inc., priority 2012, dated 2016).

The target of assay [1] is T1, cell surface Notch3 on HCC2429 cells (Homo sapiens, UniProt Q9UM47).
T1 construct: endogenous Notch3 expressing cell lines, HCC2429 and MDA-MB-468; endogenous in cells; host or cells: HCC2429
Put plainly: Cell-based ELISA, HCC2429 cells. The following applies: Table 29; LB = lacked binding. As to the method:
(§1) Unconjugated anti-Notch3 antibodies, anti-Notch3 ADCs and a negative control antibody (huNeg8.8) were screened for cell surface binding activity to Notch3 expressing cell lines in a cell-based ELISA. Over-expressing Notch3 cell line, U2OS/hNotch3, and endogenous Notch3 expressing cell lines, HCC2429 and MDA-MB-468, were plated at 50,000, 200,000 and 100,000 cells/well, respectively, in 96 well plates (white opaque, BD/VWR) the day before ELISA assay. On the day of the ELISA, culture media was removed from wells and serially diluted (1:3 in DPBS with calcium chloride and magnesium chloride (Ca/Mg) and 1% BSA) antibody and ADC solutions were applied to the plate. Plates were incubated at room temperature for 2 hours before washed with DPBS with Ca/Mg and 1% BSA. HRP-conjugated secondary antibody was then applied and incubated with cells for 1 hour. Plates were washed with DPBS with Ca/Mg and 1% BSA before being developed with Pico-Chemiluminescent developing kit (Thermal Scientific), and chemiluminescence measurements were performed per manufacturer's instructions. Data plotting and analyses were performed with Microsoft Excel and Graphpad-Prism software.
Unconjugated cysteine mutant humanized anti-Notch3 antibodies were screened for cell surface binding activity to Notch3 expressing cell lines in a cell-based ELISA, as described in previous Examples. […] For the control antibody that lacked binding (LB), EC50 values were not generated as indicated.
On the technique in general: In an ELISA, binding on a coated surface is turned into a signal by an enzyme label.

In assay [2] the target is T2, full-length human Notch3 expressed on the cell surface of U2OS/hNotch3 cells (Homo sapiens, UniProt Q9UM47).
T2 construct: U-2 OS cells stably over-expressing human or mouse full length Notch3 protein on cell surface; expressed in transfected cells; host or cells: U-2 OS (human osteosarcoma)
T2 sequence (Q9UM47 40-2321): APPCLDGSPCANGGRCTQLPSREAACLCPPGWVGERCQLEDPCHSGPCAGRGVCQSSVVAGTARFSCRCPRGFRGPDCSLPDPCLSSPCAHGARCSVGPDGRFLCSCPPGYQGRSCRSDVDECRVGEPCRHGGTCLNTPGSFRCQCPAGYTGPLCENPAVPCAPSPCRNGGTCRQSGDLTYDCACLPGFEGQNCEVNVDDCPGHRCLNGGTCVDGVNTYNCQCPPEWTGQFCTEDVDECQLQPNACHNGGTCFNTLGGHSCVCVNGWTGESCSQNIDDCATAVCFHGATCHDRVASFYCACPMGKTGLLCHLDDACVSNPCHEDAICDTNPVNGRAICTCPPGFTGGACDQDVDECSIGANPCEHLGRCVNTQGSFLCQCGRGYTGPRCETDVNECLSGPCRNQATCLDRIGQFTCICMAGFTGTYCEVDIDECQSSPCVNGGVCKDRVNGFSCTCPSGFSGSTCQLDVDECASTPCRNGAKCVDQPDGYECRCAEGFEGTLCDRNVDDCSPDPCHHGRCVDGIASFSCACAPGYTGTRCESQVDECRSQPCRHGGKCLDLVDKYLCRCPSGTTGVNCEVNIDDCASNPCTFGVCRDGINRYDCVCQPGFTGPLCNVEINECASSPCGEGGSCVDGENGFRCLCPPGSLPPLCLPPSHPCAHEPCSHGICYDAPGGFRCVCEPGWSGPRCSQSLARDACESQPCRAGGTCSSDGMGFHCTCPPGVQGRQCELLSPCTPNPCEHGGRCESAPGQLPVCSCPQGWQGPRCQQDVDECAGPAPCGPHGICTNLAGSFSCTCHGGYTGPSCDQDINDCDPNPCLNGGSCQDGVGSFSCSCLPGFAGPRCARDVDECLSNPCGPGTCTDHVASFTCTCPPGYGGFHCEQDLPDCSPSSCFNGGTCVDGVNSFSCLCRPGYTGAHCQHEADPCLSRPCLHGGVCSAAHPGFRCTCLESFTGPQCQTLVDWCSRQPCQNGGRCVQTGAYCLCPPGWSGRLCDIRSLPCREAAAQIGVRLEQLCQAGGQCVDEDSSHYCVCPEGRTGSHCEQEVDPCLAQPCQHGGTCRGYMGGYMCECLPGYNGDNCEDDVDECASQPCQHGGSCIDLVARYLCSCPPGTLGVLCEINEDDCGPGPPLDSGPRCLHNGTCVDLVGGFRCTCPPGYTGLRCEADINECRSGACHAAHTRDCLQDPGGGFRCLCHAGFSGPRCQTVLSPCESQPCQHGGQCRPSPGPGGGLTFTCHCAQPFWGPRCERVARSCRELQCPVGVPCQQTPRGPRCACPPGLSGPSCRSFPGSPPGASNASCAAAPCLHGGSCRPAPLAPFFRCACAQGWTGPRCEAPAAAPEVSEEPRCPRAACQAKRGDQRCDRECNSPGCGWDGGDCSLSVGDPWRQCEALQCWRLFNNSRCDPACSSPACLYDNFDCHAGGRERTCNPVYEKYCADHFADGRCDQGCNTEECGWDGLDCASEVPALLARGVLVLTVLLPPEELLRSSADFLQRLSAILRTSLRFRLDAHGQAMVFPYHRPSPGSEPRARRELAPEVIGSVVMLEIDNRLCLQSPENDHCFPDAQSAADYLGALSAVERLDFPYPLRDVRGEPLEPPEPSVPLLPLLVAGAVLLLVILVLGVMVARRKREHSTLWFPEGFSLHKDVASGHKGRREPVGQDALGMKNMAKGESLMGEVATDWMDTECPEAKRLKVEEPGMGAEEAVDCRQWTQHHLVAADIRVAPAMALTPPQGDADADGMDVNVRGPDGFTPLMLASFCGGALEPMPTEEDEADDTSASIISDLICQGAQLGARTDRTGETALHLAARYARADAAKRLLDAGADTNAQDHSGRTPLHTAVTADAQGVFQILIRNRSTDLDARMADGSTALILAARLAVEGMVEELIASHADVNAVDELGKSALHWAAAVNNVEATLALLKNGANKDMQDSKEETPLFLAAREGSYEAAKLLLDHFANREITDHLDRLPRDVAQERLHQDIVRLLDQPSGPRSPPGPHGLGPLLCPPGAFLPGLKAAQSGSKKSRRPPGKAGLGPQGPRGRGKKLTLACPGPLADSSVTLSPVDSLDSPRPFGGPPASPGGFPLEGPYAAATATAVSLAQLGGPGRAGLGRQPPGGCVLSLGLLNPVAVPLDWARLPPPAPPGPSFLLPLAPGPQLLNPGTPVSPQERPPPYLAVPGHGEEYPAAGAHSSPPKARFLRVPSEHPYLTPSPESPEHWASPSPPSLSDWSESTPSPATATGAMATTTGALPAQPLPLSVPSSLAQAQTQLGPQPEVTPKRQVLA
Put plainly: Cell-based ELISA, U2OS/hNotch3 cells. The following applies: Table 29; two value columns; LB = lacked binding. Here is the method:
Humanized hu28 and hu75, and rat-human chimeric, ch28 and ch75, anti-Notch3 antibodies were screened for cell surface Notch3 binding in a cell-based ELISA. U-2 OS cells stably over-expressing human or mouse full length Notch3 protein on cell surface (hereinafter U2OS/hNotch3 and U2OS/mNotch3, respectively) were plated at 50,000 cells/well in 96 well plates (white opaque, BD/VWR) the day before ELISA assay. On the day of the ELISA, culture media was removed from wells and serially diluted (1:3 in blocking buffer) antibody solutions were applied to the plate. Plates were incubated at room temperature for 2 hours before being washed with PBS-Mg/Ca. HRP-conjugated secondary antibody was then applied and incubated with cells for 1 hour as described above for recombinant protein ELISA. Plates were washed with PBS-Mg/Ca before being developed with Pico-Chemiluminescent developing kit (Thermal Scientific), and chemiluminescence measurements were performed per manufacturer's instructions. Data plotting and analyses were performed with Microsoft Excel and Graphpad-Prism software.
as §1, with “Plates were washed with DPBS with Ca/Mg and 1% BSA before being developed with Pico-Chemiluminescent developing kit (Thermal Scientific), and chemiluminescence measurements were performed per manufacturer's instructions. Data plotting and analyses were performed with Microsoft Excel and Graphpad-Prism software.” left out

The target of assay [3] is T3, cell surface Notch3 on OVCAR3 cells (Homo sapiens, UniProt Q9UM47).
T3 construct: Notch3 endogenously expressing cells MDA-MB-468, HCC2429 and OVCAR3; endogenous in cells; host or cells: OVCAR3
T3 sequence (Q9UM47 40-2321): as above
Briefly: Cell-based ELISA, OVCAR3 cells. The following applies: Table 29; LB = lacked binding.

Assay [4] relates to OVCAR3 (ovarian cancer). Put plainly: In vitro cytotoxicity (MTS), OVCAR3. Conditions: Table 30. The class given is cell-based, human. Here is the method: (§2) The effects of anti-Notch3 ADCs were assessed on 1) cell lines endogenously expressing Notch3 protein: HCC2429 (lung cancer), OVCAR3 (ovarian cancer) and MDA-MB-468 (breast cancer), 2) cell lines engineered to over-express full length human Notch3 protein: MDA-MB-468/hNotch3 and U2OS/hNotch3, and 3) a negative control cell line (SW900) using an MTS cellular viability indicator (Promega, Madison, Wis.). These cell lines were cultured with increasing concentrations of anti-Notch3 ADCs comprising rat-human chimeric anti-Notch3 antibodies, ch28 and ch75, and humanized anti-Notch3 antibodies, hu28 and hu75, conjugated to various linker-payload combinations of the present invention. As a specificity control for the anti-Notch3-ADCs, non-targeted control-ADCs (huNeg8.8-ADCs or ch2H6-ADCs) were also tested on the same cell lines. After four days, viability of each culture was assessed. IC50 values were calculated by logistic non-linear regression, model #203 with XL fit v4.2 (IDBS, Guildford, Surry, UK) and presented as ng Ab/mL. The drug antibody ratio (DAR) is also provided.
(§3) This process generated the anti-Notch3 cysteine mutant ADCs: hu28-(L443C)-vc0101 and hu28-(L443C/κK183C)-vc0101. The activity of the anti-Notch3 cysteine mutant ADCs were assessed on cell lines endogenously expressing Notch3 protein: HCC2429 (lung cancer) and OVCAR3 (ovarian cancer) using an MTS cellular viability indicator as described in previous Examples.

In assay [5] the test system is OVCAR3 ovarian xenografts. Briefly: OVCAR3 ovarian xenograft model. Conditions: intravenously Q4d×4.
Assay [6] concerns HCC2429 (lung cancer). Briefly: In vitro cytotoxicity (MTS), HCC2429. The class given is cell-based, human. Conditions: Table 30. As to the method: as §2, §3

The EC50 is the concentration at which the effect is half-maximal. A lower EC50 goes with greater potency.

“And” between values parts separate entries of the source, which are not always exact repeats. Equal entries are not always repeated.

T1 sequence (Q9UM47 40-2321): as above

B1: hu28-(L443C): hu28 with site-specific cysteine substitution L443C in the IgG1 heavy chain constant domain (antibody)
heavy: EVQLVESGGGLVQPGGSLRLSCAASGFTFRDYGMTWVRQAPGKGLEWVAYISSGSNYIYYAEAVKGRFTISRDNAKNSLYLQMNSLRAEDTAVYYCARRGPFVLDAWGQGTLVTVSSASTKGPSVFPLAPSSKSTSGGTAALGCLVKDYFPEPVTVSWNSGALTSGVHTFPAVLQSSGLYSLSSVVTVPSSSLGTQTYICNVNHKPSNTKVDKKV[letters of human IgG1 Fc with L443C (EU numbers) omitted]
light: DIQMTQSPSSLSASVGDRVTITCKASQSINRYLHWYQQKPGKAPKLLIYNANGLQTGVPSRFSGSGSGTDFTLTISSLQPEDFATYYCLQHNTWPDTFGGGTKVEIKRTVAAPSVFIFPPSDEQLKSGTASVVCLLNNFYPREAKVQWKVDNALQSGNSQESVTEQDSKDSTYSLSSTLTLSKADYEKHKVYACEVTHQGLSSPVTKSFNRGEC
With B1, the EC50 in assay [1] was 0.08 nM; in assay [2], 0.28 nM and 0.3 nM; in assay [3], 0.2 nM.

B2: hu28-(L443C)-vc0101 (conjugate)
heavy: EVQLVESGGGLVQPGGSLRLSCAASGFTFRDYGMTWVRQAPGKGLEWVAYISSGSNYIYYAEAVKGRFTISRDNAKNSLYLQMNSLRAEDTAVYYCARRGPFVLDAWGQGTLVTVSSASTKGPSVFPLAPSSKSTSGGTAALGCLVKDYFPEPVTVSWNSGALTSGVHTFPAVLQSSGLYSLSSVVTVPSSSLGTQTYICNVNHKPSNTKVDKKV[letters of human IgG1 Fc with L443C (EU numbers) omitted]
light: DIQMTQSPSSLSASVGDRVTITCKASQSINRYLHWYQQKPGKAPKLLIYNANGLQTGVPSRFSGSGSGTDFTLTISSLQPEDFATYYCLQHNTWPDTFGGGTKVEIKRTVAAPSVFIFPPSDEQLKSGTASVVCLLNNFYPREAKVQWKVDNALQSGNSQESVTEQDSKDSTYSLSSTLTLSKADYEKHKVYACEVTHQGLSSPVTKSFNRGEC
Consider B2, for which, in assay [4], the “IC50 (ng Ab/ml), OVCAR3” value is 13129 ng Ab/ml and 15840 ng Ab/ml and 12189 ng Ab/ml. Moreover, the tumor volume in assay [5] (DAY 2, dose 1 mg/kg) is 235 mm3; in assay [5] (DAY 2, dose 3 mg/kg), 244 mm3; in assay [5] (DAY 6, dose 1 mg/kg), 295 mm3; in assay [5] (DAY 6, dose 3 mg/kg), 259 mm3; in assay [5] (DAY 9, dose 1 mg/kg) it was 346 mm3; in assay [5] (DAY 9, dose 3 mg/kg) it was 240 mm3. The tumor volume in assay [5] (DAY 12, dose 1 mg/kg) was 359 mm3; in assay [5] (DAY 12, dose 3 mg/kg) it was 198 mm3; in assay [5] (DAY 15, dose 1 mg/kg) it was 349 mm3; in assay [5] (DAY 15, dose 3 mg/kg), 142 mm3; in assay [5] (DAY 19, dose 1 mg/kg), 383 mm3; in assay [5] (DAY 19, dose 3 mg/kg) it was 115 mm3. Moreover, the tumor volume stood at 427 mm3 in assay [5] (DAY 22, dose 1 mg/kg); 94 mm3 in assay [5] (DAY 22, dose 3 mg/kg); 519 mm3 in assay [5] (DAY 26, dose 1 mg/kg); 85 mm3 in assay [5] (DAY 26, dose 3 mg/kg); 624 mm3 in assay [5] (DAY 29, dose 1 mg/kg); 97 mm3 in assay [5] (DAY 29, dose 3 mg/kg). Besides, the tumor volume came out at 789 mm3 in assay [5] (DAY 33, dose 1 mg/kg); 114 mm3 in assay [5] (DAY 33, dose 3 mg/kg); 942 mm3 in assay [5] (DAY 36, dose 1 mg/kg); 146 mm3 in assay [5] (DAY 36, dose 3 mg/kg); 1046 mm3 in assay [5] (DAY 40, dose 1 mg/kg); 205 mm3 in assay [5] (DAY 40, dose 3 mg/kg). Also, the tumor volume was 1130 mm3 in assay [5] (DAY 42, dose 1 mg/kg); 246 mm3 in assay [5] (DAY 42, dose 3 mg/kg); 1493 mm3 in assay [5] (DAY 47, dose 1 mg/kg); 378 mm3 in assay [5] (DAY 47, dose 3 mg/kg); 452 mm3 in assay [5] (DAY 50, dose 3 mg/kg); 604 mm3 in assay [5] (DAY 54, dose 3 mg/kg). The tumor volume in assay [5] (DAY 57, dose 3 mg/kg) amounted to 826 mm3; in assay [5] (DAY 61, dose 3 mg/kg), 820 mm3; in assay [5] (DAY −2, dose 1 mg/kg), 160 mm3; in assay [5] (DAY −2, dose 3 mg/kg) it was 160 mm3. In addition, the “IC50 (ng Ab/ml), HCC2429” value in assay [6] was 20308 ng Ab/ml and 16879 ng Ab/ml and 14324 ng Ab/ml.

B3: hu28-(L443C/κK183C): hu28 with cysteine substitutions L443C (heavy chain) and κK183C (kappa light chain) (antibody)
heavy: EVQLVESGGGLVQPGGSLRLSCAASGFTFRDYGMTWVRQAPGKGLEWVAYISSGSNYIYYAEAVKGRFTISRDNAKNSLYLQMNSLRAEDTAVYYCARRGPFVLDAWGQGTLVTVSSASTKGPSVFPLAPSSKSTSGGTAALGCLVKDYFPEPVTVSWNSGALTSGVHTFPAVLQSSGLYSLSSVVTVPSSSLGTQTYICNVNHKPSNTKVDKKV[letters of human IgG1 Fc with L443C (EU numbers) omitted]
light: DIQMTQSPSSLSASVGDRVTITCKASQSINRYLHWYQQKPGKAPKLLIYNANGLQTGVPSRFSGSGSGTDFTLTISSLQPEDFATYYCLQHNTWPDTFGGGTKVEIKRTVAAPSVFIFPPSDEQLKSGTASVVCLLNNFYPREAKVQWKVDNALQSGNSQESVTEQDSKDSTYSLSSTLTLSCADYEKHKVYACEVTHQGLSSPVTKSFNRGEC
With B3, the EC50 in assay [1] is 0.11 nM; in assay [2] it was 0.38 nM and 0.27 nM; in assay [3], 0.2 nM.
